# Source: the RNAGym collection of RNA variant scans (doi:10.7554/elife.90254)
# The source gives no read counts; variants with many changes may rest on few reads.
# B1: LINE1-mini (parent)
# chain: GGCAGAGCUCAACACAGCGUGGCAAAGUGGCUGUGGCUAGACUGCC
# Variants of: B1
# Experiment: self-cleavage, relative activity (ratio to wild type); higher = more cleavage; in vitro, sequencing; the parent is a self-cleaving ribozyme
row,Variant,self-cleavage
1,C3A C18A A25C U34A,0.07
2,C3G C10A G19U,0.01
3,C3G A11G C37A C45A,0.02
4,C3G A14U C42A,0.09
5,C3G A4U G17A G33A U38G A41C C42A,0.02
6,C3A C15A A24G U38G C46A,0.2
7,C3A C31U C37G G40U,0.09
8,C3A G7A A12G C45G,0.26
9,C3G A11U A12G,0.06
10,C3A G5U A6C U9A,1.73
11,C3A G5U A16U C18A A25G G36C C46G,0.12
12,C3G A26G U28C C31U,0.11
13,C3G A26U G29U C46U,0.85
14,C3G A12G C13A A41C,0.02
15,C3G A6G A11U,0
16,C3G C15U C42G G44A C46A,0.14
17,C3G A4G C10G G29U G33U G40C G44A,0.01
18,C3A G7A C23G C31U,0.72
19,C3A U20C G22C A24U C31G C45U,0.11
20,C3A C18A U32G,0
21,C3A G7C G22C A25U G29U A39C,0.03
22,C3A C23A G36U,0.04
23,C3A U9A A16U G22C,0.16
24,C3A G19A A24U A26C G30C,0.4

row,Variant,self-cleavage
1,C3A G33A C42U G44A,0.18
2,C3A U9G C18U A26C C42U,0.92
3,C3A U28G G44U,2.8
4,C3G A12C A16C A25C G35U G40C,0
5,C3A C15U A39G,0.04
6,C3G G7C A11U C23A A24G G40A,0.01
7,C3G C10A G19A C23U,0.09
8,C3A G33A C42A,0.14
9,C3A G17C G22A C46A,0.52
10,C3G A4G G5U G7C U32C C45G,0.01
11,C3A G44U C46G,0.74
12,C3G G17U C18A A41C,0.05
13,C3G A4G C10U U28G U38G G44A,0.02
14,C3A G27C A39G,0.32
15,C3A C15U G17A G30A C45A,0.03
16,C3G A6G G27C,0.04
17,C3A C13U G29A,0.13
18,C3A G27A C42A C45G,0.2
19,C3G A39C G44U,0.07
20,C3G C18A C45G,0.1
21,C3A U28G A41U C46A,0.19
22,C3A G22A G40U,0.12
23,C3A G5A U9G G19A,0.98
24,C3G G5C C18G U28A G33U,0.06

row,Variant,self-cleavage
1,C3G G7A U32A G35U,0.39
2,C3A G29C G30C,0.05
3,C3G C23A A39G,0.16
4,C3A G21U G36U C37A,0.28
5,C3A G7A C42U,0.28
6,C3A G5C A25C G27C G40C,0.06
7,C3A G7C A41U,0.11
8,C3G G7A C8G C15G A25U G27U,0.13
9,C3A G22U G29A G40U,0.08
10,C3A G19A A25C U28G,0.05
11,C3A C13U A14U C15A G21C C45G,0.13
12,C3G A4C A12G,0.31
13,C3A C15A G22A,0.08
14,C3G G5U U20A C45G,0.18
15,C3G C8G U9A G21A G29U,1.98
16,C3A C15G G33U C45A,0.04
17,C3A G33C G44C,0.02
18,C3G G17C C23A G30C G35U G40A,0.02
19,C3G A11U C23U A25U,0.04
20,C3G C15A U43G G44C,0.06
21,C3A G19U C23G,0.29
22,C3A C15U G21A U32A,0.03
23,C3A G5A A26C G29U G40A,0.35
24,C3A G27A C46A,0.2

row,Variant,self-cleavage
1,C3A G17C G44C,0.25
2,C3A G17C G44A,0.11
3,C3A G5A U9A C15A A25G G33C C42G,0.52
4,C3A U9A C31A G40A,0.07
5,C3A U9G G29U,0.57
6,C3G G7A C8G C13U A16C C42G,0.16
7,C3A C13U U20A,0.4
8,C3A C18U C31G,0.1
9,C3G A14C U28G G29A,0.03
10,C3A C18U G19A A24U U28G,0.31
11,C3G A16U U20A C23U U34A C45U,0.01
12,C3A C15G A24U G36C A41G,0.09
13,C3A G5C C8A G27U G29C C42A,0.45
14,C3G C8U A25C,0.35
15,C3A C15U G35U,0.23
16,C3A C13A A16G G29A,0.08
17,C3G A12C A24U C42A,0.01
18,C3G C13G G22A C31A G33C C46A,0.05
19,C3G A11U G30A G36U,0
20,C3G A16U C18A G33U U43C,0.01
21,C3A G36A C42A,0.41
22,C3A U9G A14G A24U G40U,0.25
23,C3G C13G G22U G29U C31A C37A,0.09
24,C3G G17U G35U U43A,0.08

row,Variant,self-cleavage
1,C3G G17C U20A,0.02
2,C3A G7C C8U A26G G33U C37A U43A,0.46
3,C3G C8U A25G G30A G44A,1.6
4,C3G C18A A26U U28C C45U,0.02
5,C3G C31A U34C C42G C46A,0.13
6,C3G A6U A25U G33U A39C,0.14
7,C3G A6U G21U,0.33
8,C3G A25U U34A,0.02
9,C3G C8G C46A,0.03
10,C3G C23A G27A,0.95
11,C3A C18A G29A U34A C37U U38G,0.08
12,C3A G5C C15U G19C,0.05
13,C3A G7A C23U,0.3
14,C3A G21C G22A G33U G44C,0.16
15,C3G C10U C13A C18G C31G,0.02
16,C3A G5A U32G,0.28
17,C3A U28C C37A A39G C42U,0.03
18,C3G A4C U38A,0.14
19,C3A U9G C37A G44U,0.16
20,C3G A6C A14C G17C A26G G27A A41C C42U,0.01
21,C3A G5C C18G G22U A25G,0.18
22,C3A U28C A39G C45U,0.03
23,C3A C18A A26C C31U C42A,0.03
24,C3A G21A C45U,1.79

row,Variant,self-cleavage
1,C3G A4U G5A,0.37
2,C3G A25U C42A,0.19
3,C3G G5U G36U,0.22
4,C3G A16U C23U A26U,0.15
5,C3G G17U C23A C37U G40A,0.2
6,C3G G7U C8A A26G,0.97
7,C3G A4C C13A C15G G22C C23U,0.04
8,C3G A24G A39U,0.17
9,C3A C15U C42U,0.43
10,C3A C15A C18G G22U G29U,0.21
11,C3G C8U U20A G22A,0.28
12,C3G A16C G29A,0.25
13,C3A C13A U38C G40C,0.06
14,C3G A16U A24U,0.08
15,C3A G22U G29U C31A G40U,0.15
16,C3A G5U C10G A14G,0.02
17,C3G A25G G29U,0.13
18,C3A G5C C13U G21U,0.16
19,C3A U20C G22U A26G A39U C42U,0.09
20,C3G A16G G27C G33U,0.09
21,C3G C10A A14C A24C A25U,0
22,C3G C18U A24U,0.15
23,C3G C23A A25G G30A U34A C37U G44A,0
24,C3G G17C G21U,0.6

row,Variant,self-cleavage
1,C3A C15A G36C A41G C45A,0.1
2,C3A C15A G30U C42U U43A G44A,0.08
3,C3A G22U C23A G27A,0.26
4,C3G G17C C45G,0.32
5,C3G A24G G35A,0.09
6,C3A G19C G33U C42U,0.03
7,C3G C13U U20A C46A,0.07
8,C3G C10G C18A U28G C31A,0.02
9,C3G A11C U20C G21C G22U U28A G40A,0
10,C3G C23U G29A,0.27
11,C3A G27U G30A G40A,0.16
12,C3G A4G U32C C37G,0.08
13,C3G C31U U32A,0.66
14,C3A G7C G17U A24C U34C A41U,0.06
15,C3A C31U G35A,0.08
16,C3A G17U U38A C42A C46U,0.08
17,C3G C8A A14G U34C,0.06
18,C3G A11C G27U G30A C42G G44U,0.01
19,C3G G5C C13U C18U G40A,0.13
20,C3G C18G G35A U43C,0
21,C3A G22A U28G,0.34
22,C3G A4U G7A G40U,0.3
23,C3A G22A A24U C37A A39C,0.27
